# Reference: PubChem BioAssay AID504339 (National Center for Advancing Translational Sciences (NCATS), 2011)
# Where “and” joins values, the source holds several entries; their conditions need not be identical. Equal values may be shown once. Hit rate of the full screen: of about 390,000 compounds, about 17,000 (4.4%) were called active. Inconclusive means that the source gave no clear call. Such entries were picked first, then a sample of the others. Calls come from the whole dose curve; as a rule, active = well fitted inhibition curve with a large enough effect; inconclusive = small, poorly fitted or top-dose-only effect; inactive = no such curve, though single readings can be large or run the other way. Where the call is inconclusive, the potency comes from a doubtful curve fit.
# Biological target: Lysine-specific demethylase 4A (Homo sapiens) (UniProt O75164)
# Sequence of UniProt O75164 (O75164 whole entry, looked up, the tested form may be a part): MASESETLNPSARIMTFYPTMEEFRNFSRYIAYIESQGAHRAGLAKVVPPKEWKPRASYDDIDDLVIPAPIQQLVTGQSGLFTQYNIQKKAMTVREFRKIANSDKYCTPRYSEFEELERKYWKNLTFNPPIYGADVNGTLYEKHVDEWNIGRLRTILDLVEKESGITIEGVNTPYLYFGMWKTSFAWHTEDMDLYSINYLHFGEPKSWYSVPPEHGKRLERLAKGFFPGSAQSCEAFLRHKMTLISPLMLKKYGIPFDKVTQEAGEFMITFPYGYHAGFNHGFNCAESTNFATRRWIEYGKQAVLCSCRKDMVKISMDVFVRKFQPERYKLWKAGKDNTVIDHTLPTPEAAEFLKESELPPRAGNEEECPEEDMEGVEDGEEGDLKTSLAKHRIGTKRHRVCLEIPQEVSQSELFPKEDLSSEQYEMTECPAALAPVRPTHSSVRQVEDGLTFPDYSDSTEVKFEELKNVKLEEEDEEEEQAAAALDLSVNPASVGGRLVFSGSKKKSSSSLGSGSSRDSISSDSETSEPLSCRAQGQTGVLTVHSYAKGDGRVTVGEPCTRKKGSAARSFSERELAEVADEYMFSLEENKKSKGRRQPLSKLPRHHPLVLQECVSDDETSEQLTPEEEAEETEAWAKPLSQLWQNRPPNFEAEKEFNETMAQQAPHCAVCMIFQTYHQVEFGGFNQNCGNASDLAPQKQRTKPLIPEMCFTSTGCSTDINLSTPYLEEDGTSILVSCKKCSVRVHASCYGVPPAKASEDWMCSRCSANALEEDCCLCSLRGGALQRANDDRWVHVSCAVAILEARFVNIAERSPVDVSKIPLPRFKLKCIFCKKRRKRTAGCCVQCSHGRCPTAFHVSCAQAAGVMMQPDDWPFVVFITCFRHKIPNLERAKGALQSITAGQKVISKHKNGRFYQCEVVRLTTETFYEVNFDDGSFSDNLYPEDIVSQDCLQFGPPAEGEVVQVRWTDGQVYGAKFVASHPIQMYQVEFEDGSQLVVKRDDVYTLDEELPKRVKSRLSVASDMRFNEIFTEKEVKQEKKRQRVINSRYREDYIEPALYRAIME
# Assay: qHTS Assay for Inhibitors of JMJD2A-Tudor Domain; note: nearly all actives have a fitted effect of over 50% in size
# Settings: AlphaScreen JMJD2A-Tudor / H3K4me3 peptide binding; activity change, negative = inhibition: at 114 µM (top of the series)
# % is set by controls: 0 for no effect and ±100 for the full control effect; potency is the fitted concentration of half-maximal effect; tags give direction and shape of the fitted curve.
SMILES,Potency,"activity change, negative = inhibition"
COc1ccc(-c2n[nH]c(=S)n2-c2ccc(Br)cc2)cc1OC,active: 50.1 µM,
COc1ccc(N2CCCC2)c(NC(=O)c2ccc([N+](=O)[O-])o2)c1,active: 28.2 µM,
COc1ccc(C2(CNC(=O)c3ccc(OCC(C)C)cc3)CCOCC2)cc1,"inconclusive: 31.6 µM [inhibitor, single point]",
c1ccc2c(CN3CCCCC3)csc2c1,,inactive: -2.08%
O=C(c1cccs1)N1N=C(c2ccccc2)CC1c1ccccc1 (configuration not stated),,inactive: -8.72%
Clc1cccc(-c2ccc(C=Nc3ccc(N4CCOCC4)cc3)o2)c1Cl,active: 25.1 µM,
CCN(CC)c1ccc(/C=N/N=C(N)N)c(O)c1,"inconclusive: 56.2 µM [inhibitor, partial curve]",
c1csc(-c2cnc3n2CCCC3)c1,"inconclusive: 79.4 µM [inhibitor, partial curve]",
CCOC(=O)C1C(C(=O)Nc2cccc(C(F)(F)F)c2)C1C(=O)NC(C)C (configuration not stated),,inactive: -15.3%
COc1ccccc1-c1nn2c(C(F)(F)F)nnc2s1,,inactive: -6.31%
CC(C)C[C@@H](CN)NC(=O)c1nc[nH]c1C(=O)N[C@@H](Cc1c[nH]c2ccccc12)C(=O)CNC[C@H](C)NC(=O)c1nc[nH]c1C(=O)N[C@@H](CC(=O)O)C(=O)O,active: 56.2 µM,
CCOC(=O)c1ccc(-c2c(-c3ccccc3OC)sc3ccc(OC)cc23)cc1F,,inactive: -11.5%
OCc1ccc(O)c2ncccc12,active: 39.8 µM,
COc1ccc(CNC(=O)C2CCCN2)cc1OC (configuration not stated),active: 3.16 µM,
COc1ccc(C)cc1NC(=O)CSc1ccc(-c2ccccn2)nn1,active: 20 µM and active: 4.47 µM,
Cc1cccc(NC(=O)c2oc3ccccc3c2NC(=O)c2cc(=O)c3cc(Cl)ccc3o2)c1,,inactive: -2.78%
CCOc1ccc(C(C)=O)cc1N1C(=O)C2C(C1=O)C1C=CC2C12CC2 (configuration not stated),,inactive: -0.552%
C=CCNc1nc(N)c(C(=O)Nc2cc(C)on2)s1,"inconclusive: 63.1 µM [inhibitor, partial curve, poor fit]",
Cc1cc(C)n2nc(SCC(=O)NC(=O)NCc3ccco3)nc2n1,active: 20 µM,
COc1ccc(CCC(=O)NC2=NCCS2)cc1OC,"inconclusive: 89.1 µM [inhibitor, single point]",
Clc1ccc(C2=Nn3c(Cn4nnc5ccccc54)nnc3SC2)cc1,active: 79.4 µM,
COc1ccccc1NC(=O)CSc1nc2ncccc2[nH]1,,inactive: -12.6%
O=C(Nc1cc(Sc2nc3ccccc3s2)cc([N+](=O)[O-])c1)c1ccccc1F,"inconclusive: 56.2 µM [inhibitor, partial curve]",
COc1ccc(CNc2cc(-c3ccc(OC)cc3)nc3nncn23)cc1,,inactive: -19.5%
CCOc1ccc2nc(NC(=O)c3cnccn3)sc2c1,,inactive: -12%
CCC(=O)NC(=S)NNC(=O)c1ccc(OC)cc1,active: 22.4 µM,

SMILES,Potency,"activity change, negative = inhibition"
Cc1ccc(C)c(N2CCN(c3nc4ccccc4n4c(C)nnc34)CC2)c1,,inactive: 9.21%
Cc1ccc(NC(=O)C(c2ccccc2)N2Cc3ccccc3C2=O)cc1Cl (configuration not stated),,inactive: -24.4%
Cn1c(Sc2ccc(C(=O)O)cc2[N+](=O)[O-])nnc1-c1ccccc1,active: 28.2 µM,
COc1ccc(-n2c(SCC(=O)Nc3nccs3)nnc2-c2ccccc2)cc1,"inconclusive: 39.8 µM [inhibitor, single point]",
CC(=O)Nc1cccc(/C(C)=N/Nc2ccc(S(=O)(=O)Nc3ccccc3C(=O)O)cc2[N+](=O)[O-])c1,active: 35.5 µM,
CC1(C)CC(=O)C(C=NCCN2CCNCC2)=C(O)C1,,inactive: 0.694%
COc1ccccc1C1NC=C([N+](=O)[O-])C=C1[N+](=O)[O-] (configuration not stated),"inconclusive: 50.1 µM [inhibitor, partial curve]",
C/C(=N\Nc1ccc(Cl)c(C(=O)O)c1)c1ccc2c(c1)OCO2,,inactive: -14%
CCCCc1ccc(S(=O)(=O)NNC(=S)NCc2ccco2)cc1,,inactive: -23.6%
COc1cc(C(=S)NCc2ccccc2)cc(Br)c1O,"inconclusive: 28.2 µM [inhibitor, single point]",
N#C/C(=C\c1cc2ccccc2nc1N1CCOCC1)C(=O)Nc1ccc(N2CCOCC2)cc1,"inconclusive: 28.2 µM [inhibitor, partial curve]",
CCOc1ccc2c(c1)c(=O)c(S(=O)(=O)c1ccc(C)cc1)cn2CC,"inconclusive: 15.8 µM [inhibitor, partial curve, poor fit]",
CC12CCC(C(=O)N(CSC(=S)N/N=C\c3ccccc3Cl)C1=O)C2(C)C (configuration not stated),"inconclusive: 39.8 µM [inhibitor, partial curve]",
COc1cc(O)c(C(CCN2CCN(c3ccccc3)CC2)c2ccc(N(C)C)cc2)c(OC)c1 (configuration not stated),active: 12.6 µM and active: 10 µM,
CC(C)OC(=O)c1cccc(C(=O)O)n1,active: 7.08 µM,
CN(C)c1ccc(/C=N/n2c(C3CCCCC3)n[nH]c2=S)cc1,active: 39.8 µM,
COc1ccc(CCNC(=O)CCNC(=O)N2CC(=O)Nc3ccccc32)cc1,"inconclusive: 17.8 µM [inhibitor, full curve, poor fit]",
O=C(NCC1CCCO1)c1cc(C(=O)c2ccc(Cl)cc2Cl)c[nH]1 (configuration not stated),,inactive: -3.4%
CC1CN(C(=O)C(C)N2CCN(c3ccccc3Cl)CC2)CC(C)O1 (configuration not stated),,inactive: 6.67% [at 57.1 µM]
Cc1cc(NC(=O)C2CC(c3cccc(Br)c3)=NO2)no1 (configuration not stated),,inactive: -9.3%
O=C(CCC1N=C2c3ccccc3N=C(SCc3ccc(Cl)cc3)N2C1=O)NCc1ccco1 (configuration not stated),"inconclusive: 50.1 µM [inhibitor, partial curve]",
CC1(C)Oc2ccc(C(=O)N3CCOCC3)cc2N(CC(=O)Nc2ccccc2)C1=O,"inconclusive: 56.2 µM [inhibitor, partial curve]",
COc1ccc2nc3sc(C(=O)NCCCN4CCc5ccccc5C4)cc3cc2c1,"inconclusive: 39.8 µM [inhibitor, partial curve, poor fit]",
COc1cccc(-c2ccc(NC(=O)C3CCCN(Cc4nccn4C)C3)cc2)c1 (configuration not stated),"inconclusive: 39.8 µM [inhibitor, partial curve]",
Cc1ccc(CN(C)C(=O)c2cccc(S(=O)(=O)N3CCN(Cc4ccccc4)CC3)c2)o1,"inconclusive: 63.1 µM [inhibitor, partial curve, poor fit]",
CCC(C)N1CCN(C(=O)c2cc(OC)cc(OC)c2)CC1 (configuration not stated),active: 20 µM,

SMILES,Potency,"activity change, negative = inhibition"
CCOC(=O)c1c(NC(=O)CSc2nccc(=O)[nH]2)sc(C)c1C,,inactive: -13.9%
COc1ccc(-c2oc(NC(=O)CCl)c(C#N)c2-c2ccc(OC)cc2)cc1,"inconclusive: 44.7 µM [inhibitor, partial curve]",
Cc1ccc(O)c(CNc2cccc3cccnc23)c1,"inconclusive: 56.2 µM [inhibitor, partial curve]",
COc1ccccc1C(=O)NCc1ccccc1,,inactive: -14.6%
CCC1=[N+](C)c2cccc3cccc(c23)N1C,"inconclusive: 20 µM [inhibitor, partial curve]",
CC(=O)C1=C(O)C(=O)N(Cc2cccnc2)C1c1ccccc1Cl (configuration not stated),,inactive: -33%
Cc1cccc(NC(=O)c2ccc(N3CCCCC3)c([N+](=O)[O-])c2)n1,"inconclusive: 25.1 µM [inhibitor, partial curve]",
CCCCNc1c(-c2ccc(OC)c(SC3CCCCC3)c2)nc2ccc(C)cn12,"inconclusive: 28.2 µM [inhibitor, full curve]",
CCCCn1cc(S(=O)(=O)c2ccc(F)cc2)c(=O)c2ccccc21,,inactive: -2.98%
COc1cccc(/C(O)=C2/C(=O)C(=O)N(CCN3CCOCC3)C2c2cccnc2)c1 (configuration not stated),,inactive: -2.52%
Oc1ccc(/C=N/n2c(-c3ccccc3)n[nH]c2=S)cc1,active: 20 µM,
Cc1noc(C)c1S(=O)(=O)N1CCN(c2ccccc2Cl)CC1,,inactive: 16.6%
O=C(COc1cccc([N+](=O)[O-])c1)N/N=C/c1ccco1,"inconclusive: 56.2 µM [inhibitor, partial curve, poor fit]",
c1ccc(OCCSc2ncnc3nc[nH]c23)cc1,"inconclusive: 89.1 µM [inhibitor, single point]",
COC(=O)[C@@]1(C)[C@H]2C(=O)N(C)C(=O)[C@H]2[C@H]2CN=C(SCc3ccc(Cl)cc3)N21,"inconclusive: 100 µM [inhibitor, single point]",
O=C(NCc1cccnc1)C1CCN(Cc2cc3ccccc3n2Cc2cccc(Cl)c2)CC1,"inconclusive: 50.1 µM [inhibitor, partial curve]",
C/C(=C\c1ccco1)C1C(C#N)=C(N)Oc2n[nH]c(-c3ccccc3)c21 (configuration not stated),"inconclusive: 50.1 µM [inhibitor, partial curve]",
CC1=C(C(N)=O)C(c2cccc(Br)c2)n2nc(SCc3ccccc3)nc2N1 (configuration not stated),,inactive: -7.51%
CCOc1ccc(CCNC(=O)CS(=O)Cc2nc(-c3ccc(C)cc3)oc2C)cc1 (configuration not stated),"inconclusive: 100 µM [inhibitor, single point]",
COC(=O)C1=CN(c2cccc(C)c2)C=C(C(=O)OC)C1c1cc(OC)c(O)c([N+](=O)[O-])c1,active: 44.7 µM,
S=c1[nH]nc(-c2ccc(Cl)cc2)n1-c1cccnc1,active: 8.91 µM,
COc1ccc(-n2c(=O)c3ccc(C(=O)NCc4ccc(C)cc4)cc3n(CC(=O)Nc3ccc(F)cc3)c2=O)cc1,,inactive: 0.667%
NC(=O)C1CCN(c2nc(-c3ccc4occc(=O)c4c3)cs2)CC1,"inconclusive: 79.4 µM [inhibitor, single point]",
O=C(O)c1cc(-c2cccs2)nn1-c1ccc(F)cc1,,inactive: -12.6%
CCOc1ccc(N(CCCCO)C(=S)NC(=O)c2ccc(C)c(Br)c2)cc1,"inconclusive: 39.8 µM [inhibitor, single point]",
